Experimental data as given in patent US20250152714A1 (IMMUSOFT, published 2025).

Molecular target: T1, PSMA on PSMA-expressing CHO cells (UniProt Q04609)
T1 construct: whole, on cells; also called PSMA-CHO
Experiment: flow cytometry, hISP culture supernatant on PSMA-expressing CHO cells

T1 sequence (Q04609 whole entry): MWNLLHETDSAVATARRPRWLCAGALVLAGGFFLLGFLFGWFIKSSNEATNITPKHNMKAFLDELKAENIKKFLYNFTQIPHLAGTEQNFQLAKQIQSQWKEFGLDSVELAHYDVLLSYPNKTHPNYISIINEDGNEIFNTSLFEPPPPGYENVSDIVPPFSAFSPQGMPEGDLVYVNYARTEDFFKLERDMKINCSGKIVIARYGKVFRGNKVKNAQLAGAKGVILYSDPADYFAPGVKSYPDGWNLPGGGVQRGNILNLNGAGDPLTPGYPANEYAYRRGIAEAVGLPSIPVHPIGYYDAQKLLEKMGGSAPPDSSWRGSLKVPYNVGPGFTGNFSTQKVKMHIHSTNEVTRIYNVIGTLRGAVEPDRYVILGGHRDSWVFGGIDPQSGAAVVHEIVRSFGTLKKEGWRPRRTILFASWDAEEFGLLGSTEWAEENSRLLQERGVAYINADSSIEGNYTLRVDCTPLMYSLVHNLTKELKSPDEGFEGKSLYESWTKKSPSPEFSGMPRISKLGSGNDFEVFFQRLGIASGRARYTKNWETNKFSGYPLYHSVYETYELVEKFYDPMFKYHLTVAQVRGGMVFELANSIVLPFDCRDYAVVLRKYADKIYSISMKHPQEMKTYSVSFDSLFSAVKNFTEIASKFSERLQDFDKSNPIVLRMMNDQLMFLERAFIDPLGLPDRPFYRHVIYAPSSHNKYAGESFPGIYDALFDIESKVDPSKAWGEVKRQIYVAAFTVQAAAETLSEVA

- binding result: no binding
B1: Herceptin scFv (anti-HER2 scFv-G1Fc) (Fc fusion)
scFv: not shown
notes: also called Herceptin scFv-Ig
